Test results: the supplement of paper PMC12645437, “Orthogonal IMiD-Degron Pairs Induce Selective Protein Degradation in Cells” (ACS Chemical Biology, 2025)
The other results are listed elsewhere or left out.

B1: Q9UKT9 (peptide)
chain: FKCEICGAFFTQKGNLLRHIKL
B2: Q9UKT9 (peptide)
chain: FDCPICGRVFTQKGNLLRHIKL
B3: Q9UKT9 (peptide)
chain: FRCEVCGALFTQKGNLLRHIKL
B4: Q9UKT9 (peptide)
chain: FDCPICGAEFTQKGNLLRHIKL
B5: Q9UKT9 (peptide)
chain: FNCEICGRYFTQKGNLLRHIKL
B6: Q9UKT9 (peptide)
chain: FVCEICGHSFTQKGNLLRHIKL
B7: Q9UKT9 (peptide)
chain: FACDICGAPFTQKGNLLRHIKL
B8: Q9UKT9 (peptide)
chain: LMCEICGFDCTQKGNLLRHIKL
B9: Q9UKT9 (peptide)
chain: FKCEVCGALFTQKGNLLRHIKL
B10: Q9UKT9 (peptide)
chain: FCCEICGHVFTQKGNLLRHIKL
B11: Q9UKT9 (peptide)
chain: LFCPICGFDCTQKGNLLRHIKL
B12: Q9UKT9 (peptide)
chain: LACPICGFQCTQKGNLLRHIKL
B13: Q9UKT9 (peptide)
chain: FVCEVCGALFTQKGNLLRHIKL
B14: Q9UKT9 (peptide)
chain: LSCNQCGFMCTQKGNLLRHIKL
B15: Q9UKT9 (peptide)
chain: FLCEICGRNFTQKGNLLRHIKL
B16: Q9UKT9 (peptide)
chain: FDCEQCGAVFTQKGNLLRHIKL
B17: Q9UKT9 (peptide)
chain: FYCPVCGAIFTQKGNLLRHIKL
B18: Q9UKT9 (peptide)
chain: FHCNQCGRMFTQKGNLLRHIKL
B19: Q9UKT9 (peptide)
chain: LICEICGFFCTQKGNLLRHIKL
B20: Q9UKT9 (peptide)
chain: LICNQCGFWCTQKGNLLRHIKL
B21: Q9UKT9 (peptide)
chain: FGCEICGADFTQKGNLLRHIKL
B22: Q9UKT9 (peptide)
chain: FACEVCGAIFTQKGNLLRHIKL
B23: Q9UKT9 (peptide)
chain: FYCEICGHGFTQKGNLLRHIKL
B24: Q9UKT9 (peptide)
chain: FNCEICGHVFTQKGNLLRHIKL
B25: Q9UKT9 (peptide)
chain: FACNICGAVFTQKGNLLRHIKL
B26: Q9UKT9 (peptide)
chain: FKCPQCGAHFTQKGNLLRHIKL
B27: Q9UKT9 (peptide)
chain: FWCNVCGARFTQKGNLLRHIKL
B28: Q9UKT9 (peptide)
chain: LSCEICGFFCTQKGNLLRHIKL
B29: Q9UKT9 (peptide)
chain: FICEICGHNFTQKGNLLRHIKL
B30: Q9UKT9 (peptide)
chain: FFCEVCGAWFTQKGNLLRHIKL
B31: Q9UKT9 (peptide)
chain: LTCEICGFLCTQKGNLLRHIKL
B32: Q9UKT9 (peptide)
chain: FNCNVCGAVFTQKGNLLRHIKL

Molecular target: no compound (DMSO)
Test: log2 fold change of degron read counts, EGFP-low vs EGFP+ sorted cells; higher = lower degron-EGFP level without compound (poor expression or instability)
Conditions: compound: DMSO control; 18 h
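Further: jurkat cells carrying a lentiviral library of mutant zinc finger degrons fused to EGFP plus mCherry, mCherry+ cells FACS sorted, degron abundance counted by next-generation sequencing.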

Sequence | log2 fold change of degron read counts
B1 | -1.35
B2 | 0.146
B3 | -0.812
B4 | -0.778
B5 | -0.913
B6 | -2.12
B7 | 0.0822
B8 | 0.266
B9 | -1.43
B10 | -0.967
B11 | 1.4
B12 | 0.51
B13 | -1.35
B14 | 0.873
B15 | -1.45
B16 | -1.32

Sequence | log2 fold change of degron read counts
B17 | 0.19
B18 | 0.146
B19 | 1.21
B20 | 1.73
B21 | -1.19
B22 | -1.09
B23 | -0.643
B24 | -1.03
B25 | -0.721
B26 | -1.31
B27 | 0.428
B28 | 1.58
B29 | -2.29
B30 | -0.00992
B31 | 0.582
B32 | -0.749
